{"source": "the RNAGym collection of RNA variant scans (doi:10.7554/elife.90254)", "parents": {"B1": {"name": "LINE1-full (parent)", "chain": "UACGUAGGUGGUUUUCCCCUGAUAGUGCUAAGGGGGCCUGGAAGUUUGGACUGGGCAGAGCUCAACACAGCGUGGCAAAGUGGCUGUGGCUAGACUGCCUCUCUGGAUUCCUCGUCACUCAGCAGGGCAUCUCUGAGAGAAAUGCC"}}, "note": "Read counts are not given, so values of variants with three or more changes are uncertain."}
{"variants_of": "B1", "assay": "self-cleavage, relative activity (ratio to wild type); higher = more cleavage; in vitro, sequencing; the parent is a self-cleaving ribozyme"}
{"variant": "UACGUAGGUGGUUUUCCCCUGAUAGUGCUAAGGGGGCCUGGAAGUCUGGACUGGGCAGAGCCCAACACAGCGUGGUAAAGUGGCUGUGGCUAGACUGCCUCUCUGGAUUCCUCGUCACUCAGCAGGGCAUCUCUGAGGGAAAUGCC", "self-cleavage": 0.04}
{"variant": "UACGUAGGUGGUUUUCCCCUGAUAGUGCUAAGGGGGCCUGGAAGUCUGGACUGGGCAGAGCCCAACACAGCGUGGCAAAGUGGCCGUGGCUAGACUGCCUCUCUGGAUUCCUCGUCACUCAGCAGGGCAUCUCUGAGAGAAAUGCC", "self-cleavage": 0}
{"variant": "UACGUAGGUGGUUUUCCCCUGAUAGUGCUAAGGGGGCCUGGAAGUCUGGACUGGGCAGAGCUCAACACAGCGAGGCAAAGUGGCUGUGGCUAGACUGCCUCUCUGGAUUCCUCGUCACUCAGCAGGGCCUCUCUGAGAGAAAUGCC", "self-cleavage": 2.3}
{"variant": "UACGUAGGUGGUUUUCCCCUGAUAGUGCUAAGGGGGCCUGGAAGUCUGGACUGGGCAGAGCUCAACACAGCGAGGCAAAGUGGUUGUGGCUAGACUGCCUCUCUGGAUUCCUCGUCACUCAGCAGGGCAUCCCUGAGAGAAAUGCC", "self-cleavage": 0.19}
{"variant": "UACGUAGGUGGUUUUCCCCUGAUAGUGCUAAGGGGGCCUGGAAGUCUGGACUGGGCAGAGCUCAACACAGCGAGGCAAAGUGGCUGUGGCUAGACUGCCUCUCUGGAUUCCUCGUCACUCAGCAGGGCAUCUCUGAGAGAAAUGCU", "self-cleavage": 2.06}
{"variant": "UACGUAGGUGGUUUUCCCCUGAUAGUGCUAAGGGGGCCUGGAAGUCUGGACUGGGCAGAGCUCAACACAGCGAGGCAAAGUGGCUGUGGCUAGACUGCCUCUCUGGAUUCCUCGUCACCCAGCAGGGCAUCUCUGAGAGAAACGCC", "self-cleavage": 2.26}
{"variant": "UACGUAGGUGGUUUUCCCCUGAUAGUGCUAAGGGGGCCUGGAAGUCUGGACUGGGCAGAGCUCAACACAGCGCGGCAAAGUGGCUGUGGCUAGACUGCCUCUCUGGAUUCCUCGUCACUCAGCAGGGCAUCUCUGAGAGAAAUGAC", "self-cleavage": 2.49}
{"variant": "UACGUAGGUGGUUUUCCCCUGAUAGUGCUAAGGGGGCCUGGAAGUCUGGACUGGGCAGAGCUCAACACAGCGCGGCAAAGUGGCUGUGGCUAGACUGCCUCUCUGGAUUCCCCGUCACUCAGCAGGGCAUCUCUGAGAGAAAUGCC", "self-cleavage": 1.89}
{"variant": "UACGUAGGUGGUUUUCCCCUGAUAGUGCUAAGGGGGCCUGGAAGUCUGGACUGGGCAGAGCUCAACACAGCGUGGCAAAGCGGCUGUGGCUAGACUGCCUCUCUGGAUUCCUCGUCACUCAGCAGGGCAUCUCAGAGAGAAAUGCC", "self-cleavage": 1.48}
{"variant": "UACGUAGGUGGUUUUCCCCUGAUAGUGCUAAGGGGGCCUGGAAGUCUGGACUGGGCAGAGCUCAACACAGCGUGGCAAAGUGGCGGUGGCUAGACUGCCCCUCUGGAUUCCUCGUCACUCAGCAGGGCAUCUCUGAGAGAAAUGCC", "self-cleavage": 0.49}
{"variant": "UACGUAGGUGGUUUUCCCCUGAUAGUGCUAAGGGGGCCUGGAAGUCUGGACUGGGCAGAGCUCAACACAGCGUGGCAAAGUGGCUGAGGCUAGACUGCCUCUCUGGAUUCCUCGCCACUCAGCAGGGCAUCUCUGAGAGAAAUGCC", "self-cleavage": 0.24}
{"variant": "UACGUAGGUGGUUUUCCCCUGAUAGUGCUAAGGGGGCCUGGAAGUCUGGACUGGGCAGAGCUCAACACAGCGUGGCAAAGUGGCUGUGGCUAGACAGACUCUCUGGAUUCCUCGACACUCAGCAGGGCAUCUCUGAGAGAAAUGCC", "self-cleavage": 0.04}
{"variant": "UACGUAGGUGGUUUUCCCCUGAUAGUGCUAAGGGGGCCUGGAAGUCUGGACUGGGCAGAGCUCAACACAGCGUGGCAAAGUGGCUGUGGCUAGACCGCCUCUCUGGAUUCCUCGUCACACAGCAGGGCAUCUCUGAGAGAAAUGCC", "self-cleavage": 0.73}
{"variant": "UACGUAGGUGGUUUUCCCCUGAUAGUGCUAAGGGGGCCUGGAAGUCUGGACUGGGCAGAGCUCAACACAGCGUGGCAAAGUGGCUGUGGCUAGACUGCCACUCUGGAUUCCUCGUCACUCAGCAGGGCAUCUCCGAGAGAAAUGCC", "self-cleavage": 1.64}
{"variant": "UACGUAGGUGGUUUUCCCCUGAUAGUGCUAAGGGGGCCUGGAAGUCUGGACUGGGCAGAGCUCAACACAGCGUGGCAAAGUGGCUGUGGCUAGACUGCCCCUCUGGAUUCCUCGUCACUCAGCAGGGCAUCUCUGAGGGAAAUGCC", "self-cleavage": 1.75}
{"variant": "UACGUAGGUGGUUUUCCCCUGAUAGUGCUAAGGGGGCCUGGAAGUCUGGACUGGGCAGAGCUCAACACAGCGUGGCAAAGUGGCUGUGGCUAGACUGCCUCUCCGGAUUCCUCGUCACUCAGCAGGGCAUCUCUGAGGGAAAUGCC", "self-cleavage": 2.04}
{"variant": "UACGUAGGUGGUUUUCCCCUGAUAGUGCUAAGGGGGCCUGGAAGUCUGGACUGGGCAGAGCUCAACACAGCGUGGCAAAGUGGCUGUGGCUAGACUGCCUCUCCGGACUCCUCGUCACUCAGCAGGGCAUCUCUGAGAGAAAUGCC", "self-cleavage": 1.15}
{"variant": "UACGUAGGUGGUUUUCCCCUGAUAGUGCUAAGGGGGCCUGGAAGUCUGGACUGGGCAGAGCUCAACACAGCGUGGCAAAGUGGCUGUGGCUAGACUGCCUCUCGGGAUUCCUCGUCACUCAGCAGGGCAUCUCUGAGAGAAAUGCA", "self-cleavage": 1.84}
{"variant": "UACGUAGGUGGUUUUCCCCUGAUAGUGCUAAGGGGGCCUGGAAGUCUGGACUGGGCAGAGCUCAACACAGCGUGGCAAAGUGGCUGUGGCUAGACUGCCUCUCUGGACACCUCGCCACUCAGCAGGGCAUCUCUGAGAGAAAUGCC", "self-cleavage": 0}
{"variant": "UACGUAGGUGGUUUUCCCCUGAUAGUGCUAAGGGGGCCUGGAAGUCUGGACUGGGCAGAGCUCAACACAGCGUGGCAAAGUGGCUGUGGCUAGACUGCCUCUCUGGAUUCCUCGUCACGCAGCAGGGCGUCUCUGAGAGAAAUGCC", "self-cleavage": 2.63}
{"variant": "UACGUAGGUGGUUUUCCCCUGAUAGUGCUAAGGGGGCCUGGAAGUCUGGACUGGGCAGAGCUCAACACAGCGUGGCAAAGUGGCUGUGGCUAGACUGCCUCUCUGGAUUCCUCGUCACUCAGCAGGGCACCUCCGAGAGAAAUGCC", "self-cleavage": 1.91}
{"variant": "UACGUAGGUGGUUUUCCCCUGAUAGUGCUAAGGGGGCCUGGAAGUCUGGACUGGGCAGAGCUCAACACAGCGUGGCAAAGUGGCUGUGGCUAGACUGCCUCUCUGGAUUCCUCGUCACUCAGCAGGGCAUCUCCGAGAGAAGAGCC", "self-cleavage": 2.08}
{"variant": "UACGUAGGUGGUUUUCCCCUGAUAGUGCUAAGGGGGCCUGGAAGUGUGGGCUGGGCAGAGCUCAACACAGCGUGGCAAAGUGGCUGUGGCUAGACUGCCUCCCUGGAUUCCUCGUCACUCAGCAGGGCAUCUCUGAGAGAAAUGCC", "self-cleavage": 1.31}
{"variant": "UACGUAGGUGGUUUUCCCCUGAUAGUGCUAAGGGGGCCUGGAAGUGUGGACUGGGCGGAGCUCAACACAGCGUGGCAAAGUGGCUGUGGCUAGACUGCCUCUCUGGAUACCUCGUCACUCAGCAGGGCAUCUCUGAGAGAAAUGCC", "self-cleavage": 0.09}
{"variant": "UACGUAGGUGGUUUUCCCCUGAUAGUGCUAAGGGGGCCUGGAAGUGUGGACUGGGCUGAGCUCAACACAGCGUGGCAAGGUGGCUGUGGCUAGACUGCCUCUCUGGAUUCCUCGUCACUCAGCAGGGCAUCUCUGAGAGGAAUGCC", "self-cleavage": 0.13}
{"variant": "UACGUAGGUGGUUUUCCCCUGAUAGUGCUAAGGGGGCCUGGAAGUGUGGACUGGGCAGAGCUCCACACAGCGUGGCAAAGUGGCUGUGGCUAGACUGCCUCUCUGGAUUCCUCGUCACUCAGCUGGGCAUCUCUGAGAGAAAUGCC", "self-cleavage": 0.07}
{"variant": "UACGUAGGUGGUUUUCCCCUGAUAGUGCUAAGGGGGCCUGGAAGUGUGGACUGGGCAGAGCUCAGCACAGCGUGGCAAAGUGGCUGUGGCUAGACUGCCUCUCGGGAUUCCUCGUCACUCAGCAGGGCAUCUCUGAGAGAAAUGCC", "self-cleavage": 0}
{"variant": "UACGUAGGUGGUUUUCCCCUGAUAGUGCUAAGGGGGCCUGGAAGUGUGGACUGGGCAGAGCUCAGCACAGCGUGGCAAAGUGGCUGUGGCUAGACUGCCUCUCUGGAUUCCUCGUCACACAGCAGGGCAUCUCUGAGAGAAAUGCC", "self-cleavage": 0.08}
{"variant": "UACGUAGGUGGUUUUCCCCUGAUAGUGCUAAGGGGGCCUGGAAGUGUGGACUGGGCAGAGCUCAACACAGCGUGGCAAAGUGGCUGUGGCUAGACUGCCUCACUGGAUUCCUCGUCACUCGGCAGGGCAUCCCUGAGAGAAAUGCC", "self-cleavage": 0.57}
{"variant": "UACGUAGGUGGUUUUCCCCUGAUAGUGCUAAGGGGGCCUGGAAGUGUGGACUGGGCAGAGCUCAACACAGCGUGGCAAAGUGGCUGUGGCUAGACUGCCUCUCUGGAUUCCUCGCCACUCAGCAGGGCGUCUCUGAGAGAAAUGCC", "self-cleavage": 2.04}
{"variant": "UACGUAGGUGGUUUUCCCCUGAUAGUGCUAAGGGGGCCUGGAAGUUAGGGCUGGGCAGAGCUCAACACAGCGUGGCAAGGUGGCCGUGGCUAGACUGCCUCUCUGGAUUCCUCGUCACUCAGCAGGGCAUCUCUGAGAGAAAUGCC", "self-cleavage": 0.29}
{"variant": "UACGUAGGUGGUUUUCCCCUGAUAGUGCUAAGGGGGCCUGGAAGUUAGGGCUGGGCAGAGCUCAACACAGCGUGGCAAAGUGGCCGUGGCUAGACUGCCUCUCUGGAUUCCUCGUCACUCAGCAGGGCAUCUCUGAGAGAAAUGCC", "self-cleavage": 0.1}
{"variant": "UACGUAGGUGGUUUUCCCCUGAUAGUGCUAAGGGGGCCUGGAAGUUAGGACUGGGCUGAGCUCAACACAGCGUGGCAAAGUGGCUGCGGCUAGACUGCCUCUCUGGAUUCCUCGUCACUCAGCAGGGCAUCUCUGAGAGAAAUGCC", "self-cleavage": 0}
{"variant": "UACGUAGGUGGUUUUCCCCUGAUAGUGCUAAGGGGGCCUGGAAGUUAGGACUGGGCUGAGCUCAACACAGCGUGGCAAAGUGGCUGUGGCUAGACAGCCUCUCUGGAUUCCUCGUCACUCAGCAGGGCAUCUCUGUGAGAAAUGCC", "self-cleavage": 0.53}
{"variant": "UACGUAGGUGGUUUUCCCCUGAUAGUGCUAAGGGGGCCUGGAAGUUAGGACUGGGCAGUGCUCAACACAGCGUGGCAGAGUGGCUGUGGCUAGACUGCCUCUCUGGAUUCCUCGUCACUCAGCAGGGCAUCUCUGAGAGAAAUGCC", "self-cleavage": 0.71}
{"variant": "UACGUAGGUGGUUUUCCCCUGAUAGUGCUAAGGGGGCCUGGAAGUUAGGACUGGGCAGAGCUCCGCACAGCGUGGCAAGGUGGCUGUGGCUAGACUGCCUCUCUGGAUUCCUCGUCACUCAGCAGGGCAUCUCUGGGAGAAAUGCC", "self-cleavage": 0.31}
{"variant": "UACGUAGGUGGUUUUCCCCUGAUAGUGCUAAGGGGGCCUGGAAGUUAGGACUGGGCAGAGCUCUACACAGCGUGGCAAAGUGGCUGUGGCUAGACUGCCUCUCUGGAUUCCUCGUCACUCAGCAGGGCGUCUCUGAGAGAAAUGCC", "self-cleavage": 0.45}
{"variant": "UACGUAGGUGGUUUUCCCCUGAUAGUGCUAAGGGGGCCUGGAAGUUAGGACUGGGCAGAGCUCAGCACAGCGUGGCGAAGUGGCUGUGGCUAGACUGCCUCUCUGGAUUCCUCGUCACUCAGCAGGGCAUCUCUGAGAGGAAUGCC", "self-cleavage": 0.04}
{"variant": "UACGUAGGUGGUUUUCCCCUGAUAGUGCUAAGGGGGCCUGGAAGUUAGGACUGGGCAGAGCUCAGCACAGCGUGGCAAAGUGGCUGUGGCUGGACUGCCUCUCUGGAUCCCUCGUCACUCAGCAGGGCAUCUCUGAGAGAAAUGCC", "self-cleavage": 0}
